The target in this assay is T1, TDP‐43 low‐complexity domain (TDP‐43^LCD), amino acids 267–414 of TDP‐43 (UniProt Q13148 267-414, Cy5 (mono NHS ester) label in TCCD and, at 1% of the protein, in FRAP; unlabelled in the other assays).
T1 construct: source: E. coli BL21(DE3), purified from inclusion bodies (HisTrap in 8 M urea), buffer exchanged into 20 mM MES pH 6.0
Put plainly: two-color coincidence detection (TCCD), confocal single-molecule fluorescence; fluorescently labelled TDP-43^LCD and labelled sHsp, diluted to 200 nM in 20 mM MES pH 6.0, 25°C, both in solution; peaks found in both channels within 10 ms counted as coincident (hetero-oligomers). The note with it: both partners purified.

T1 sequence (Q13148 267-414, one chain of several): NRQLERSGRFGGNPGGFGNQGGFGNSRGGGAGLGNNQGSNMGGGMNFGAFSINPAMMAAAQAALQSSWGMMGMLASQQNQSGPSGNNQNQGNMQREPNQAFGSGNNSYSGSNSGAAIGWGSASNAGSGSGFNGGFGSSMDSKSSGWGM

B1: HspB1^ACD (core α‐crystallin domain of HspB1, […]) (domain or fragment)
chain: not shown
modifications: Alexa Fluor 647 (NHS ester) label in TCCD and in the condensate partitioning experiment
notes: Small heat shock protein HspB1 (Hsp27), α-crystallin domain, […]; pET28 vector, gift of A. Laganowsky (Laganowsky et al., 2010); also called core domain of HspB1; source: E. coli BL21(DE3), purified
With B1, the binding result is reported as “binds”.

Source of the values: publication PMC13140710, “Small heat shock proteins HspB1 and HspB5 differentially alter the condensation and aggregation of the TDP‐43 low‐complexity domain” (Protein Science : A Publication of the Protein Society, 2026).
